Results taken from patent US5162573A, “Valproic and (E)-2-valproenoic acid derivatives, and pharmaceutical compositions therefrom” (Chiesi Farmaceutici S.p.A., priority 1986, dated 1992).
The name of at least one read-out is uncertain.

Test system: pentetrazol convulsions
Assay: pentetrazol convulsions test in mice (anticonvulsivant activity)
Type: in vivo
Conditions: pentetrazole 90 mg/kg s.c.
[1] = Table 4, 8-16 h from treatment, valproenoic acid derivatives at 4.6 mmol/kg, valproenoic acid at 592 mg/kg (4.2 mmol/kg)
[2] = Table 4, valproenoic acid derivatives at 4.6 mmol/kg, valproenoic acid at 592 mg/kg (4.2 mmol/kg)
[3] = Table 3, 8-16 h from treatment, valproic acid derivatives at 4.6 mmol/kg, sodium valproate at 506 mg/kg (3.1 mmol/kg)
[4] = Table 3, valproic acid derivatives at 4.6 mmol/kg, sodium valproate at 506 mg/kg (3.1 mmol/kg, maximum administerable dose)

SMILES	Protection from convulsions onset AUC, 8-16 h [1] [protection % × h]	Protection from convulsions onset AUC, total [2] [protection % × h]	Protection from convulsions onset AUC, 8-16 h [3] [protection % × h]	Protection from convulsions onset AUC, total [4] [protection % × h]
CC/C=C(\CCC)C(=O)OCc1ccccn1 [Compound 27]	58	122		
CC/C=C(\CCC)C(=O)O [valproenoic acid, (E)-2-propyl-2-pentenoic acid]	36	284		
CCCC(CCC)C(=O)OC(C)OC(=O)C(C)(C)C (stereo not drawn) [Compound 4]			240	625
CCCC(CCC)C(=O)OCCOC(C)=O [Compound 3, 2'-Acetoxyethyl 2-propyl-pentanoate]			116	609
CCCC(CCC)C(=O)OCc1oc(=O)oc1C [Compound 7]			144	681
CCCC(CCC)C(=O)OCOC(=O)C(CCC)CCC [Compound 16, 2-propylpentanoyloxymethyl 2-propyl-pentanoate]			252	751
CC/C=C(\CCC)C(=O)OCCN1C(=O)CCC1=O [Compound 22, 2-(2',5'-dione-pyrrolidine-1-yl)ethyl 2-propyl-2-pentenoate (E cis)]	28	240		
CC/C=C(\CCC)C(=O)OCCOC(=O)c1ccccc1 [Compound 9]	28	181		
CC/C=C(\CCC)C(=O)OCOC(C)=O [Compound 19]	58	208		
CCCC(CCC)C(=O)OCCOC(=O)C(C)(C)C [Compound 5]			200	519
CCCC(CCC)C(=O)OCCOC(=O)OCC [Compound 6]			148	621
CCCC(CCC)C(=O)OCCN1C(=O)CCC1=O [Compound 8]			116	647
